{
  "source": "PubChem BioAssay AID720542",
  "about": "(National Center for Advancing Translational Sciences (NCATS), 2013)",
  "note": "In all, about 360,000 compounds went through this assay and about 740 (0.21%) were called active. This list was built around the results that the source calls inconclusive (neither active nor inactive); the mix of calls is not that of the screen. The call rests on the fitted dose curve; in most records, active means well fitted inhibition curve with a large enough effect; inconclusive means small, poorly fitted or top-dose-only effect; inactive means no such curve, though single readings can be large or run the other way. No potency is given beside an inconclusive call; the fits are too rough. Potency means the concentration at half of the fitted maximal effect; tags describe the fitted curve by direction and shape.",
  "data": [
    {"test_system": "Plasmodium falciparum AMA1 (3D7) - RON2 peptide interaction", "assay": "qHTS for Inhibitors of AMA1-RON; Towards Development of Antimalarial Drug Lead: Primary Screen; further: nearly all actives have a fitted effect of over 45% in size;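 on activity change, negative = inhibition: 0% = vehicle wells and -100% = peptide control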", "conditions": "AlphaScreen AMA1-biotinylated RON2 peptide binding; activity change, negative = inhibition: at 58.2 µM (top of the series) unless noted", "method_in_brief": "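AMA1 (3D7) with his tag at 25 nM final met compounds first, then biotinylated RON2 peptide at 25 nM; detection used donor plus acceptor beads, 10 µg/mL apiece, read by AlphaScreen after 30 min at room temperature.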", "values": [
      {"smiles": "COc1ccc2[nH]c(C(=O)NCc3ccccc3)c(C)c2c1", "Potency": "inconclusive [inhibitor, single point]"},
      {"smiles": "CCOc1ccc(OCC)c(NC(=O)Nc2ccc3c(c2)N(C)C(=O)CS3)c1", "Potency": "inconclusive [inhibitor, single point]"},
      {"smiles": "CN(C)c1ccc(Cc2cc3c(O)ccc(O)c3cc(Cc3ccc(N(C)C)cc3)c2=O)cc1", "Potency": "active: 11.2 µM"},
      {"smiles": "C=CCSc1nnc2c(n1)OC=Nc1ccc(Br)cc1-2", "activity change, negative = inhibition": "inactive: 2.53%"},
      {"smiles": "C=CC[n+]1ccc(/C=C2\\C=Cc3cc(C)ccc3N2CC)c2ccccc21", "Potency": "inconclusive [inhibitor, single point]"},
      {"smiles": "COc1ccc(-[n+]2c(-c3ccccc3)cc(-c3ccc(C)cc3)cc2-c2ccccc2)cc1", "Potency": "inconclusive [inhibitor, single point]"},
      {"smiles": "C=CSc1sc(Cl)c(N2CCOCC2)c1[N+](=O)[O-]", "Potency": "inconclusive [inhibitor, single point]"},
      {"smiles": "CCCN(CCO)Cc1ccc(Cl)c(Cl)c1", "Potency": "inconclusive [inhibitor, partial curve]"},
      {"smiles": "Cc1ccc(O)c(C(=O)c2cnc3c(c2)COc2ccccc2-3)c1", "Potency": "inconclusive [inhibitor, partial curve]"},
      {"smiles": "CNc1ccc(C=C2C=Cc3ccccc32)cc1", "Potency": "active: 25.1 µM"},
      {"smiles": "COc1ccc(C(=O)OC(C)C(=O)NC2CCCCC2C)cc1S(=O)(=O)N1CCOCC1", "note": "(stereo unspecified)", "activity change, negative = inhibition": "inactive: 4.93%"},
      {"smiles": "CCOC(=O)c1cnc(N2CCN(C(=O)OCC)CC2)[nH]c1=O", "Potency": "inconclusive [inhibitor, partial curve]"},
      {"smiles": "CC(C)CNC(=S)N1CCN(C)CC1", "Potency": "inconclusive [inhibitor, full curve]"},
      {"smiles": "Nc1cccc(-c2nc3ccc(C(=O)c4ccccc4)cc3[nH]2)c1", "activity change, negative = inhibition": "inactive: -7.23%"},
      {"smiles": "O=C(Nc1cccc(NC(=O)c2cccs2)c1)c1ccc([N+](=O)[O-])o1", "activity change, negative = inhibition": "inactive: 6.25%"},
      {"smiles": "O=C(N/N=C/c1ccc2nccnc2c1)c1ccncc1", "activity change, negative = inhibition": "inactive: 6.2%"},
      {"smiles": "CC(C)Cn1c(SC(C)C(=O)Nc2ccc3c(c2)OCCO3)nc2ccccc2c1=O", "note": "(stereo unspecified)", "activity change, negative = inhibition": "inactive: -10.9%"},
      {"smiles": "CN(C)CCNc1cccc2sc3ccc(O)cc3c(=O)c12", "Potency": "inconclusive [inhibitor, partial curve]"},
      {"smiles": "COc1ccc(-n2nnnc2C(c2cccs2)N2CCN(C/C=C/c3ccccc3)CC2)cc1", "note": "(stereo unspecified)", "Potency": "inconclusive [inhibitor, partial curve]"},
      {"smiles": "O=[N+]([O-])c1cccnc1N1CCN(c2ccc(F)cc2)CC1", "Potency": "inconclusive [inhibitor, single point]"},
      {"smiles": "COc1ccc(N2CCN(C(=O)C(C)(C)Oc3ccc(Cl)cc3)CC2)cc1", "Potency": "inconclusive [inhibitor, partial curve]"},
      {"smiles": "OCCN1CCN(Cc2ccc3ccccc3c2)CC1", "Potency": "inconclusive [inhibitor, single point]"},
      {"smiles": "COc1ccc(Nc2nc(N3CCCC3)c3ccccc3n2)cc1", "Potency": "inconclusive [inhibitor, partial curve]"},
      {"smiles": "COc1ccc(CC(=O)NNC(=O)COc2ccc3ccccc3c2)cc1", "activity change, negative = inhibition": "inactive: 32.3% [at 2.32 µM]"},
      {"smiles": "O=C(OCn1nnc2ccccc2c1=O)c1cccnc1", "Potency": "inconclusive [inhibitor, partial curve, poor fit]"},
      {"smiles": "COc1cc2nc(N(CCCN(C)C)C(=O)c3ccc(C(=O)c4ccccc4)cc3)sc2cc1OC", "Potency": "inconclusive [inhibitor, single point]"},
      {"smiles": "CCS(=O)(=O)N1CCN(C2CCC(C)CC2)CC1", "note": "(stereo unspecified)", "Potency": "inconclusive [inhibitor, partial curve]"},
      {"smiles": "Cc1nc2cc(-c3ccc(Cl)cc3)nn2c(NCCN(C)C)c1C", "Potency": "inconclusive [inhibitor, full curve, poor fit]"},
      {"smiles": "Cc1ccc(NC2=NCC(Cc3ccc(Br)cc3)S2)cc1", "note": "(stereo unspecified)", "Potency": "inconclusive [inhibitor, partial curve]"},
      {"smiles": "CCCOc1ccc(Br)cc1CSC(=N)N", "activity change, negative = inhibition": "inactive: -0.509%"},
      {"smiles": "CCN1CCN(Cc2cc(Br)ccc2O)CC1", "activity change, negative = inhibition": "inactive: -5.22%"},
      {"smiles": "O=C(Cc1ccccc1[N+](=O)[O-])N1CCc2ccccc2C1", "activity change, negative = inhibition": "inactive: -4.59%"},
      {"smiles": "NN=C1c2ccccc2-c2ccc(N)cc21", "Potency": "inconclusive [inhibitor, single point]"},
      {"smiles": "COC(=O)C1=C(CSc2nc3c(cc2C#N)CN(C)CC3)OC(N)=C(C#N)C1c1ccc(F)cc1", "note": "(stereo unspecified)", "Potency": "inconclusive [inhibitor, partial curve]"},
      {"smiles": "COC(=O)C1=C(N)OC2=C(C(=O)CCC2)C1c1cccnc1", "note": "(stereo unspecified)", "activity change, negative = inhibition": "inactive: -7.26%"},
      {"smiles": "NS(=O)(=O)c1cc(C(=O)N=Nc2c(O)[nH]c3ccccc23)ccc1Cl", "activity change, negative = inhibition": "inactive: -6.73%"},
      {"smiles": "COc1cccc(-c2cnc(NCc3cc(Cl)ccc3O)n2C)c1", "Potency": "inconclusive [inhibitor, partial curve]"},
      {"smiles": "O=c1[nH]ncc(N2CCCC2)c1Cl", "Potency": "inconclusive [inhibitor, full curve, poor fit]"},
      {"smiles": "CC1CC(C)CN(C(=O)c2ccc(-c3ccc([N+](=O)[O-])cc3)o2)C1", "note": "(stereo unspecified)", "Potency": "inconclusive [inhibitor, single point]"},
      {"smiles": "CCN(CC)c1ccc(NC(=O)COC(=O)/C=C/c2nc3ccccc3s2)cc1", "Potency": "inconclusive [inhibitor, full curve, poor fit]"},
      {"smiles": "O=C(/C=C/c1ccc(Cl)cc1)N1CCN(Cc2ccccc2)CC1", "Potency": "inconclusive [inhibitor, partial curve]"},
      {"smiles": "O=C(Nc1ccc(N2CCN(C(=O)c3ccco3)CC2)cc1)c1ccc([N+](=O)[O-])cc1Cl", "activity change, negative = inhibition": "inactive: -4.08%"},
      {"smiles": "COc1ccc(OC)c(NC(=O)CSc2sc3c(O)cc(=O)[nH]c3c2C#N)c1", "Potency": "inconclusive [inhibitor, single point]"},
      {"smiles": "Cc1ccc2nc(NC(=O)c3ccc4ncsc4c3)sc2c1", "activity change, negative = inhibition": "inactive: 0.256%"},
      {"smiles": "CC(C)(C)c1cc(CNC(=O)C2CCC(=O)N(Cc3ccccc3F)C2)[nH]n1", "note": "(stereo unspecified)", "activity change, negative = inhibition": "inactive: -1.93%"},
      {"smiles": "O=C(Cc1ccc(Cl)cc1)NC1CCCCCC1", "Potency": "inconclusive [inhibitor, full curve, poor fit]"},
      {"smiles": "O=C(O)C1C2C=CC(O2)C1C(=O)Nc1ccccn1", "note": "(stereo unspecified)", "Potency": "inconclusive [inhibitor, single point]"},
      {"smiles": "CCN(CC)c1ccc(NC(=O)Cn2cc3c(n2)CCC(C)C3)c(C)c1", "note": "(stereo unspecified)", "Potency": "inconclusive [inhibitor, partial curve]"},
      {"smiles": "COc1ccc(OC)c(CN2CCN(C(=O)c3cccs3)CC2)c1", "Potency": "inconclusive [inhibitor, partial curve]"},
      {"smiles": "O=C(c1cccs1)c1c[nH]cc1-c1ccccc1", "Potency": "inconclusive [inhibitor, partial curve]"},
      {"smiles": "N#Cc1nc(-c2ccc(OCc3ccccc3)cc2)oc1NCc1cccnc1", "Potency": "inconclusive [inhibitor, single point]"},
      {"smiles": "COc1ccc(Cn2nnnc2CN2CCc3ccccc3C2)cc1", "activity change, negative = inhibition": "inactive: -8.95%"},
      {"smiles": "COc1ccc(-c2nc(NC(=O)C3CC(=O)N(c4ccc5c(c4)OCCO5)C3)sc2C)cc1", "note": "(stereo unspecified)", "Potency": "inconclusive [inhibitor, partial curve]"},
      {"smiles": "CC(C(=O)Nc1ccc(C(F)(F)F)cc1)N(C)CC(=O)N1CCN(Cc2ccccc2)CC1", "note": "(stereo unspecified)", "Potency": "inconclusive [inhibitor, partial curve]"},
      {"smiles": "CCOC(=O)c1c(C)c(/C=N/Nc2ccccc2)n(C)c1C", "Potency": "inconclusive [inhibitor, single point]"},
      {"smiles": "Cn1c(=O)c2c(nc(-n3ccnc3)n2Cc2ccc(Cl)cc2Cl)n(C)c1=O", "Potency": "inconclusive [inhibitor, single point]"},
      {"smiles": "CCOC(=O)C1CCN(C(=O)Nc2ccc3nc(-c4ccco4)c(-c4ccco4)nc3c2)CC1", "Potency": "inconclusive [inhibitor, partial curve]"},
      {"smiles": "COc1ccc(/C=C/C(=O)Nn2cnnc2)cc1", "activity change, negative = inhibition": "inactive: -5.62%"},
      {"smiles": "Cc1cc(NC(=O)CN(C)CCOc2ccccc2)ccc1Br", "Potency": "inconclusive [inhibitor, full curve, poor fit]"},
      {"smiles": "COc1cc(OC)c2c(-c3ccccc3)cc(=O)oc2c1C(CCN1CCCCC1)c1ccc(N(C)C)cc1", "note": "(stereo unspecified)", "Potency": "active: 25.1 µM"},
      {"smiles": "COc1ccc(/C=N/NC(=O)c2ccccc2OC)cc1COc1ccccc1[N+](=O)[O-]", "Potency": "inconclusive [inhibitor, single point]"},
      {"smiles": "CCS(=O)(=O)c1ccc2c(c1)N(S(C)(=O)=O)CC(C(=O)NN)O2", "note": "(stereo unspecified)", "activity change, negative = inhibition": "inactive: 4.28%"},
      {"smiles": "O=C(Nc1ccccn1)C1CCN(S(=O)(=O)c2cccs2)CC1", "activity change, negative = inhibition": "inactive: -1.9%"},
      {"smiles": "N#Cc1nc(COc2ccccc2Cl)oc1N1CCCC1", "Potency": "inconclusive [inhibitor, partial curve]"},
      {"smiles": "CN(C)S(=O)(=O)c1ccc(Cl)c(C(=O)NC2=NCCS2)c1", "activity change, negative = inhibition": "inactive: -4.23%"},
      {"smiles": "O=[N+]([O-])c1ccc(O)c(N=Cc2sc3ccccc3c2O)c1", "Potency": "inconclusive [inhibitor, partial curve, poor fit]"},
      {"smiles": "COc1cc(C#Cc2c(-c3cncn3C)n(C)c3ccc(-c4ccc5[nH]ccc5c4)cc23)cc(OC)c1", "activity change, negative = inhibition": "inactive: 26.1%"},
      {"smiles": "Cc1ccc(N/N=C2\\CS(=O)(=O)N(C)c3ccsc32)cc1", "Potency": "inconclusive [inhibitor, partial curve]"},
      {"smiles": "CCN(CCCNS(=O)(=O)c1ccc2c(c1)oc(=O)n2C)c1cccc(C)c1", "Potency": "inconclusive [inhibitor, single point]"},
      {"smiles": "N/C(=N\\OC(=O)c1cccc(Cl)c1)c1ccncc1", "activity change, negative = inhibition": "inactive: -5.47%"},
      {"smiles": "Cc1cc(C)cc(N=c2c([N+](=O)[O-])nn(-c3ccc4c(c3)OCCO4)n2O)c1", "Potency": "inconclusive [inhibitor, partial curve]"}
    ]}
  ]
}
